From ChEMBL document CHEMBL4888484, “Replenishing the malaria drug discovery pipeline: Screening and hit evaluation of the MMV Hit Generation Library 1 (HGL1) against asexual blood stage Plasmodium falciparum ,using a nano luciferase reporter read-out” (2022) come the findings set out here.

Screen size: about 150,000 compounds; about 540 (0.36%) showed an effect of 50% or more. The list shows a part of the results.

The test system of this assay is Plasmodium falciparum. Briefly: Primary screen in NF54 nanoGlo assay, in single point, at 2uM, 72h; a lower Z score goes with more inhibition. The note with it: timepoint 72 hour. Format: functional, Erythrocyte.

Usually % Inhibition stands for the change of the read-out against control, counted positive when it falls. With `CC(C)(C)C(=O)NCc1noc(C2CCCCC2)n1`, the “% Inhibition” value is on record as 1% and the Z score is -0.19.
The matching figures for `O=C(CCc1cscn1)NS(=O)(=O)c1cccnc1`: 2% and -0.19.
`C[C@H](NC(=O)C1(O)CCCC1)c1ccn(C)n1`: the “% Inhibition” value is recorded as -15% and the Z score was 2.08.
The matching figures for `COc1ccc(-n2cc(-c3nc(-c4ccccc4Cl)no3)c3ccccc3c2=O)cc1OC`: 11% and -1.31.
For `CN(C)C(=O)c1ccc(=O)n(CC23CCC(CC2)C3)c1` the same measures were -11% and 1.
The matching figures for `CC[C@@H](c1cccc(C)n1)n1cnc2ncccc2c1=O`: -10% and 1.4.
Turning to `COCC1CN(C(=O)NCCc2ccco2)CC(C)O1` (centres undefined), the “% Inhibition” value is listed as 24% and the Z score is given as -3.09.
The matching figures for `Cc1ccc(-n2nc(C(=O)NCC3CCCO3)c(=O)n(C(C)c3ccccc3)c2=O)cc1F` (centres undefined): -8% and 0.82.
For `COc1ccsc1S(=O)(=O)NCCC(F)(F)F` the same measures were -12% and 1.16.
The matching figures for `CO[C@@H](C)c1nc(CN(C)C(=O)c2nn(C)c(C)c2Cl)cs1`: -1% and 0.19.
With `CC1(C)OC(=O)N(c2cccnc2)[C@@]1(C)O`, the “% Inhibition” value is reported as -2% and the Z score was 0.31.
The matching figures for `O=C(C1CCCCC1)N1CC[C@@H]2COC(=O)N(Cc3ccccc3)[C@@H]2C1`: -4% and 0.53.
For `Cc1nc(CCCN(C)C)n(-c2cccc3cccnc23)n1` the same measures were 9% and -1.3.
For `CCn1ccnc1[C@H](C)NC(=O)Cn1ncc2cc(C)cnc21` the same measures were -17% and 2.59.
As to `COc1ccccc1CNC(=O)c1ccc(C)nc1C1CCN(Cc2cccnc2)CC1`, the “% Inhibition” value is recorded as -6% and the Z score was 0.66.
For `O=C(NC1CCCC1)[C@@H]1CCCn2c(-c3ccccc3)cnc21` the same measures were -3% and 0.5.
The matching figures for `CCC[C@H](NC(=O)Cc1cccc(C)c1)C(=O)O`: -1% and 0.06.
Consider `O=C(C1CCCN1C(=O)C1CCCC1)N1CCOC(C(F)F)C1` (centres undefined), for which the “% Inhibition” value is -11% and the Z score is 1.3.
The matching figures for `Cc1cc(C)n(C[C@H](C)Nc2nc(-c3cccnc3)nc3c2CCNC3)n1`: 7% and -0.92.
The matching figures for `Cc1ccc(CN2CCN(Cc3nnc(C(C)C)o3)[C@H]3CS(=O)(=O)C[C@H]32)o1`: 2% and -0.34.
As to `CCN(C(=O)c1cnn(C2CCC2)c1)c1cccnc1`, the “% Inhibition” value is listed as -10% and the Z score stood at 1.82.
Turning to `CN(C)c1nc(NCc2noc(C3CCCC3)n2)ncc1F`, the “% Inhibition” value was -9% and the Z score is 1.14.
The matching figures for `CC(=O)Nc1nc(-c2ccc(S(=O)(=O)N3CCN(c4ccccc4)CC3)cc2)cs1`: -6% and 0.93.
For `Cc1nn(C)c(C)c1S(=O)(=O)NC(C)(C)C(=O)N(C)C` the same measures were -6% and 1.2.
With `O=C(C1CCC2CCCCC2C1)N1CC(O)(CO)C1` (centres undefined), the “% Inhibition” value is given as -15% and the Z score was 2.31.
For `O=S(=O)(c1ccc2oc(Nc3cc(Cl)ccc3F)nc2c1)N1CCOCC1` the same measures were 28% and -3.83.
For `CC(c1nc2cc(Cl)ccc2[nH]1)N(C)CC(O)C(F)(F)F` (centres undefined) the same measures were 3% and -0.3.
For the molecule `O=C(Nc1ccc(NC(=O)c2ccco2)cc1C(F)(F)F)Nc1ccc(NC(=O)c2ccco2)cc1C(F)(F)F`, the “% Inhibition” value is recorded as -5% and the Z score is given as 0.71.
For `C[C@H](O)c1cccc(/C=C/C2CCCCC2)n1` the same measures were -5% and 1.09.
The matching figures for `Cc1ccn2c(C3CCN(C(=O)c4scnc4C)CC3)nnc2c1`: 27% and -3.66.
Regarding `Cc1cc(-c2csc(NC(=O)C3CCN(C4CC4)CC3)n2)c(C)o1`, the “% Inhibition” value was -3% and the Z score is reported as 0.44.
The matching figures for `CN1CCC(CNC(=O)c2cccc(Cn3ccnc3)c2)CC1`: -11% and 2.12.
For the molecule `CCc1nccn1CC1(CNC(=O)c2cnc[nH]2)CC1`, the “% Inhibition” value is -13% and the Z score amounted to 1.73.
For `O=C1C2CCCN2C(=O)N1C1CCN(c2ccc(Cl)c(F)c2)C1` (centres undefined) the same measures were -2% and 0.31.
The matching figures for `CC(C)C1OCCC1C(=O)N(Cc1ccccc1F)c1cn[nH]c1` (centres undefined): -3% and 0.57.
Regarding `CC(C)(C)C(=O)COc1ccc(Cl)cc1C(N)=O`, the “% Inhibition” value is -13% and the Z score is listed as 2.54.
For `Cc1ccc2c(c1N)[C@@H](C)CC21CCCCC1` the same measures were -1% and 0.06.
For `O=C(Nc1c(-c2ccc(F)cc2)nc2c(Cl)cc(C(F)(F)F)cn12)c1ccccc1` the same measures were -9% and 1.25.
The matching figures for `Cc1ccccc1[C@H](CC(=O)O)NC(=O)C(F)(F)F`: 31% and -1.08.
Consider `COc1cccc(-n2c(C)cc(C(=O)Cn3cnc4ccccc4c3=O)c2C)c1`, for which the “% Inhibition” value was -7% and the Z score is reported as 0.76.
The matching figures for `CCOc1ccc(S(=O)(=O)N(C)c2ccc(OC(=O)CCc3c(C)noc3C)cc2)cc1`: -2% and 0.34.
For `NC(=O)[C@H]1CCCN1C(=O)N[C@@H]1c2ccccc2C[C@H]1O` the same measures were -9% and 1.87.
For the molecule `Cc1n[nH]c(C)c1CCN(C)C(=O)c1ccc2c(c1)C[C@H](C)O2`, the “% Inhibition” value is given as 0% and the Z score is -0.05.
The matching figures for `COc1ccccc1C1(CNC(=O)C(=O)NC2CC2)CCOCC1`: -6% and 1.04.
Turning to `CCN(C(=O)COc1cccc(C)c1C)[C@H](c1ccc(C)cc1)c1c[nH]c2ccccc12`, the “% Inhibition” value worked out at 1% and the Z score is -0.09.
The matching figures for `CC1CN(Cc2cc(-c3cnn(C)c3)no2)C(c2ccccc2)CO1` (centres undefined): -2% and 0.36.
For `COc1cccc(CN2CCN(c3nc[nH]n3)CC2)c1C` the same measures were -8% and 1.28.
On to `O=C(C[C@H]1C(=O)OCCN1C1CCCCC1)Nc1ccccc1`, for which the “% Inhibition” value is -14% and the Z score is listed as 1.63.
The matching figures for `c1ccc(-c2noc(-c3nc(-c4ccccn4)no3)n2)cc1`: -21% and 1.94.
For `Cc1cnc(C(=O)N2CCC3(CCC(=O)N(CCc4cccnc4)C3)CC2)cn1` the same measures were -13% and 1.87.
For `CCOc1cc(N[C@H]2Cc3ccccc3NC2=O)ncn1` the same measures were -7% and 1.08.
As for `O=C(CN1C(=O)C2CC=CCC2C1=O)N1CCN(S(=O)(=O)c2ccc3ccccc3c2)CC1` (centres undefined), the “% Inhibition” value is -7% and the Z score is recorded as 1.11.
The matching figures for `COc1cccc(C2C(NC(=O)c3ccoc3)CCN2C2CC2)c1` (centres undefined): 38% and -5.09.
Take `CN1[C@@H](c2ccccc2Cl)[C@@H](C(=O)NCc2ncc[nH]2)C[C@@]1(C)C(=O)O`: the “% Inhibition” value was -8% and the Z score is recorded as 0.79.
The matching figures for `COC1(CN[C@H](c2cccc(Cl)c2F)C2CC2)CCOCC1`: -12% and 1.21.
Regarding `CCc1ccc(CCNC(=O)c2cnn3c2NCCC3)cc1`, the “% Inhibition” value came out at 4% and the Z score is listed as -0.69.
For `CN(CCC(=O)NCc1cccs1)CCc1ccccn1` the same measures were -10% and 1.16.
`CNS(=O)(=O)c1ccccc1N1CC(C)(OC)C1`: the “% Inhibition” value is -18% and the Z score is reported as 2.58.
For `COCC(=O)N1CCC(N2C[C@H](Oc3ccccc3)[C@@H]2c2ccncc2)CC1` the same measures were -9% and 1.14.
The matching figures for `COCCN(Cc1c(-c2ccccc2)noc1N1CCN(C)CC1)C(=O)C1CCCC1`: 0% and -0.03.
Take `COc1ccc(-c2cc3ccccc3n2CC(O)CNCC2CCCO2)cc1` (centres undefined): for the setting “2 µM”, the “% Inhibition” value turned out to be 1% and the Z score is on record as -3.58.
With `O=C(COC[C@H]1CCCO1)Nc1ccns1`, the “% Inhibition” value is -16% and the Z score came out at 2.1.
For `CS(=O)(=O)c1ccc(-c2noc(-c3ccnnc3)n2)cc1` the same measures were -15% and 1.88.
The matching figures for `CS(=O)(=O)N1CCC[C@H]1c1noc(CCC(=O)NC2CCCC2)n1`: -17% and 1.9.
For `CCCC1C(=O)CC(C(C)C)C(C#N)(C#N)C1(C#N)C#N` (centres undefined) the same measures were -7% and 0.86.
In the case of `CN(CC1(O)CCC1)C(=O)C(C)(C)N1CCOCC1`, the “% Inhibition” value is recorded as 1% and the Z score is recorded as -0.11.
The matching figures for `CCCN(CCOC)Cc1cccs1`: -9% and 1.01.
For the molecule `Cc1cccc(CC(=O)OCc2cc(-c3ccncc3)n[nH]2)c1`, the “% Inhibition” value came to 10% and the Z score is reported as -1.53.
For `Cc1ccccc1-c1ncc(-c2cn(C[C@H]3CCS(=O)(=O)C3)nn2)s1`, the “% Inhibition” value is given as -15% and the Z score is 2.01.
For `CS(=O)(=O)C1(c2nc(-c3cccc(Cl)c3)no2)CCOCC1` the same measures were -4% and 0.8.
For `C[C@]1(c2ccc(Br)cc2)CC(=O)N(CC(=O)Nc2ccc(F)cc2Cl)C1=O` the same measures were 0% and -0.04.
Take `O=C(c1ccoc1C1CC1)N1CC[C@H](c2ccc3cccnc3n2)C1`: the “% Inhibition” value was determined as 8% and the Z score was -1.08.
With `CN(CC(N)=O)Cc1ccc(Br)cc1F`, the “% Inhibition” value is listed as -11% and the Z score is 1.6.
Turning to `Cc1cc(N(CCO)C2CC2)nc(C2CC2)n1`, the “% Inhibition” value was found to be 35% and the Z score is -4.72.
The matching figures for `CCOc1ccccc1C(=O)NC[C@@H](c1ccc(N(C)C)cc1)N1CCOCC1`: -15% and 1.45.
For `c1ccc2c(C3CC3c3nc(Cc4ccon4)no3)cccc2c1` (centres undefined) the same measures were -6% and 0.9.
For `COC(=O)C1CC12CCN(S(=O)(=O)CC(OC)C1CCC1)CC2` (centres undefined) the same measures were 6% and -0.81.
Take `CCc1cc(C(=O)N(C)Cc2ccon2)ccn1`: the “% Inhibition” value was -6% and the Z score is on record as 1.26.
The matching figures for `N#Cc1cccnc1N(CCCO)Cc1cccnc1`: -14% and 1.63.
In the case of `COC(=O)[C@H](Cc1cn(C)cn1)NS(=O)(=O)N(C)C1CCCC1`, the “% Inhibition” value was -8% and the Z score is 1.07.
The matching figures for `O=C(Nc1nc(-c2ccccn2)cs1)c1cnn(Cc2ccccc2)c1`: -7% and 1.09.
In the case of `Clc1ccc(OCCn2ccnn2)cc1`, the “% Inhibition” value was determined as 2% and the Z score was -0.17.
On to `CN(C[C@H]1CCOC1)c1nnnn1CC1CCC(C(F)(F)F)CC1` (some centres undefined), for which the “% Inhibition” value is given as -3% and the Z score is 0.53.
For `CN1C[C@@H](NC(=O)Nc2ccc(Cl)c(C(F)(F)F)c2)CCC1=O` the same measures were 8% and -1.31.
The matching figures for `Cc1nc(NC2CCCCC2)sc1C(=O)Nc1cccc(F)c1C`: -2% and 0.19.
For `CCS(=O)(=O)N(C)CC(=O)N1C(C)CC(c2ccccc2)C1C` (centres undefined) the same measures were -8% and 0.82.
Turning to `CCc1noc(-c2cccn2Cc2ccc(OC)c(F)c2)n1`, the “% Inhibition” value was -2% and the Z score is 0.45.
